Source: PubChem BioAssay AID493208 (National Center for Advancing Translational Sciences (NCATS), 2011)
Out of some 44,000 compounds screened, about 340 (0.77%) were called active. Not shown: some 5% with an inconclusive outcome. The call rests on the fitted dose curve; in most records, active means well fitted inhibition curve with a large enough effect; inconclusive means small, poorly fitted or top-dose-only effect; inactive means flat fitted curve, though single readings scatter. Some of the results follow.

assay: Acumen qHTS Assay for Inhibitors of the mTORC1 Signaling Pathway in MEF (Tsc2-/-, p53-/-) Cells: Sytravon; details: phospho-rpS6 immunofluorescence/PI, 24 h; series mostly up to 38.3 µM; activity change, negative = inhibition: at the top concentration; further: nearly all actives have a fitted effect of over 50% in size;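 on activity change, negative = inhibition: plate controls were DMSO for no effect and rapamycin for full effect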
Procedure, shortened: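 Immunofluorescence of rpS6 phosphorylation in Tsc2-/-, p53-/- MEFs after 24 h compound exposure, normalized to propidium iodide signal. Activity is expressed as % positive cells, thresholded with 7.5 nM rapamycin.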
Potency means the concentration at half of the fitted maximal effect.

Activity change, negative = inhibition, inactive:
Cc1ccc(-n2c(=O)c3cccnc3n2CC(=O)Nc2ccccc2C(F)(F)F)cc1C 3.08%
COc1cccc(CNC(=O)C2CCCN(S(=O)(=O)c3cn(C)cn3)C2)c1 (configuration not stated) 1.58%
COc1ccc(-c2cn3c(n2)sc2cc(C(=O)NC4CCCCC4)ccc23)cc1 5.3%
CC[C@H](C)NC(=O)CCCc1nnc2n(CCC(C)C)c(=O)c3sccc3n12 -3.18%
Cc1ccc(C)c(NC(=O)C(NS(=O)(=O)c2ccc3c(c2)CCC(=O)N3)c2ccccc2)c1 (configuration not stated) -7.18%
COc1ccccc1OC(C)C(=O)N1CCN(CCc2ccccn2)CC1 (configuration not stated) -1.25%
CCOC(=O)C1CCCN(C(=O)Cn2nc(C)n3c(cc4c(OC)cccc43)c2=O)C1 (configuration not stated) 1.48%
O=c1c2ccccc2nc2sc(Nc3cccc(C(F)(F)F)c3)nn12 -0.237%
CCN(CC)c1ccc(C2C(C(N)=O)=C(C)Nc3nc(SCc4ccccc4)nn32)cc1 (configuration not stated) 7.67%
CSc1cccc(NS(=O)(=O)c2ccc3[nH]cc(C(=O)N4CCCCCC4)c(=O)c3c2)c1 -8.89%
Cc1cccc(Cc2c(C)nc3nc(SCC(=O)NC4CCCCC4)nn3c2C)c1 -4.59%
Fc1ccc(-c2noc3ncnc(NCc4cccc(Cl)c4)c23)cc1 -4.55%
CCOC(=O)c1nnc2c(-c3ccc(F)cc3)c(C)nn2c1N -0.698%
COc1ccccc1CNC(=O)c1cnn(-c2ccc(F)cc2F)c1C1CCN(C(=O)OC(C)(C)C)CC1 2.87%
Cc1ccc(N2CC(NC(=O)Cc3ccc(F)cc3)CC2=O)cc1C (configuration not stated) -0.0709%
COc1ccc(-c2noc(CCC(=O)Nc3ccccc3Cl)n2)cc1OC -3.02%
COCCN1CN=C(NS(=O)(=O)c2ccc(C)cc2)NC1 -0.546%
COc1ccc(/C=C(\C#N)c2nc(-c3cc4ccccc4oc3=O)cs2)cc1OC -13.1%
CC1CCN(S(=O)(=O)c2ccc3nc(N4CCN(c5ccccc5F)CC4)ccc3c2)CC1 9.8%
COC(=O)c1cccnc1-n1c(=O)c2cccnc2n(CC(=O)Nc2cccc(C(F)(F)F)c2)c1=O 2.99%
CCOc1cc(C2CC(=O)Nc3c2c(C)nn3-c2nc(C)cc(C)n2)ccc1O (configuration not stated) -11.8%
COc1ccccc1N1CCN(C(=O)c2oc3ccccc3c2N)CC1 2.32%
Cc1ccc(-c2onc(C)c2C)cc1S(=O)(=O)NC1CCC(C)CC1 (configuration not stated) -24.1%
COc1cc(C)ccc1OCCSc1nnc(-c2cccs2)o1 -7.87%
O=C(/C=C/c1ccccc1)Nc1cc(-c2nc3ccccc3o2)ccc1Cl 6.81%
FC(F)(F)c1cccc(N2CCN(Cc3nnc(-c4ccccc4)o3)CC2)c1 3.23%
CCOc1ccccc1CNC(=O)c1ccc(Cn2c(=O)c3cccn3c3cccnc32)cc1 5.08%
CC(C)c1ccc(-c2noc(SCC(=O)N3CCCCC3)n2)cc1 3.16%
CCCN(CCC)CCCNC(=O)c1nn(C)c2c1CS(=O)(=O)c1ccccc1-2 -2.54%
CC(=O)Nc1nonc1-c1nnc(SCc2cccc(Br)c2)n1C -0.342%
CCOc1cccc2sc(NC(=O)c3ccc(S(=O)(=O)N4CCc5ccccc54)cc3)nc12 1.37%
CCc1cccc(C)c1NC(=O)C(CC)Sc1nc2ccncc2[nH]1 (configuration not stated) -5.64%
CCCCc1nn2c(=O)cc(COC(=O)c3ccc(NC(=O)c4cccc(OC)c4)cc3)nc2s1 6.89%
CCCN1CCN(CC2=C(C(=O)OCC)C(c3cccc(OC)c3OC)NC(=O)N2)CC1 (configuration not stated) 2.8%
COc1ccc(CN2CCN(c3ncnc4sc5c(c34)CCCC5)CC2)cc1F -5.84%
Cc1ccc(NC(=O)N2CCc3c(sc4c3CCCC4)C2c2ccccc2)cc1F (configuration not stated) 11.7%
CSc1ncc(C(=O)NCc2ccccc2Cl)c(C(F)(F)F)n1 -9.63%
CCOC(=O)CSc1nc2cc3c(cc2c(=O)n1CCCCCC(=O)NCc1ccc2c(c1)OCO2)OCO3 -13%
CCCCN(C)C(=O)c1ccc2c(c1)N(Cc1cccc(Cl)c1)C(=O)c1ccccc1S2=O (configuration not stated) -2.15%
Cc1cc(C)cc(NC(=O)N2CCN(C)c3ncccc32)c1 -11.5%
Cc1ccc2c(CC(=O)Nc3ccc(S(=O)(=O)Nc4nc(C)cc(C)n4)cc3)coc2c1 -3.09%
CCOc1ccc(CNC(=O)CN2C(=O)CSc3ccc(S(=O)(=O)N4CCOCC4)cc32)cc1OC 6.5%
Cn1c(=O)cc(OCC(=O)N2CCN(c3ccccc3F)CC2)c2ccccc21 -2.1%
O=C(CCCCn1c(=O)c2ccccc2n(Cc2ccccc2F)c1=O)NCc1ccc2c(c1)OCO2 -3.24%
O=C(NCc1ccc(Cl)cc1)C1(c2cccs2)CCOCC1 -6.5%
COc1ccc(-c2noc(-c3cc(C(C)C)[nH]n3)n2)cc1 -15.9%
Cc1ccc(OCCSc2nc3ccccc3n2CC(=O)N2CCCCC2)cc1C -7.26%
COC(=O)c1ccccc1NC(=O)CCn1nc(C)c2c(C)n(-c3ccccc3)nc2c1=O 1.51%
CC(=O)c1cccc(Nc2cc(C)nc3nc(-c4ccccc4C)nn23)c1 0.367%
Cc1ccc(CNC(=O)C2CCCN(c3nc4c(C)cc(C)cc4s3)C2)cc1 (configuration not stated) 0.707%
O=C(Nc1ccc(NC(=O)c2cccs2)cc1)c1ccc(Cl)cc1 -12.6%
COC(=O)c1ccccc1NC(=O)Cn1ncc2c(C)n(Cc3ccc(F)cc3)c(C)c2c1=O -2.25%
O=C(COc1ccccc1)NCCc1csc(-c2ccc(F)cc2)n1 4.2%
CN(C(=O)Cn1c(=O)n(Cc2ccc(C(=O)NCc3ccc4c(c3)OCO4)cc2)c(=O)c2ccccc21)c1ccccc1 3.87%
COc1ccc(CNC(=O)CCc2nc3cccnc3n2Cc2ccc(OC)cc2)cc1 -10.9%
O=C(Cn1cc(S(=O)(=O)Cc2cccc(Cl)c2)c2ccccc21)Nc1ccc(F)c(Cl)c1 -0.818%
CCCCOc1ccc(Cn2c(=O)oc3ccccc32)cc1 -5.73%
Cc1ccccc1Cc1c(C)nc2c(-c3ccccc3)c(C)[nH]n2c1=O 10.3%
CCOc1ccc(OCC(=O)NCCS(=O)(=O)N2CCN(c3ccc(OC)cc3)CC2)cc1 -23.4%
Cc1ccc(NC(=O)Cn2c(=O)n(CCc3ccccc3)c(=O)c3sc4ccccc4c32)cc1C -3.19%
COc1ccccc1CNS(=O)(=O)c1cc(-c2cc(C)no2)ccc1C 1.22%

Potency, active:
COc1ccc(S(=O)(=O)N(C(=O)c2ccncc2)c2ccc3oc(C)c(C(C)=O)c3c2)cc1 18.5 µM
